Experimental data: the BET-seq Pho4 binding data (Le et al. 2018)
This is one part of the list. The energies were worked out here from pooled read counts, against the library average; single values are noisy.

The sequences below were run against T1, Pho4 (S. cerevisiae) (UniProt P07270) (assay: relative binding free energy (BET-seq); higher = weaker binding). Conditions: reference: library average.
T1 sequence: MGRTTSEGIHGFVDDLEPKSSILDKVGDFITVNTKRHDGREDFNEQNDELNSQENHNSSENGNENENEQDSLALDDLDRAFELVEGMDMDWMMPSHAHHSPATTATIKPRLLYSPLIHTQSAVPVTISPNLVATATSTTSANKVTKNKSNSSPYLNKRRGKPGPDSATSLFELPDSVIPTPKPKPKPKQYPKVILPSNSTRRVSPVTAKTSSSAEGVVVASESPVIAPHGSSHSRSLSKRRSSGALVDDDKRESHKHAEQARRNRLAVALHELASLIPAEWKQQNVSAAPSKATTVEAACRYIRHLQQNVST

Sequence	relative binding free energy [kcal/mol]
AGGGTCACGTGTTGTG	0.17
GGCGACACGTGAGGTG	0.25
GATAGCACGTGTTGTC	0.02
TATCGCACGTGTCAGT	0.02
TGAGGCACGTGCTTTG	-0.04
ATCGGCACGTGGTAGT	-0.26
TGAATCACGTGTTGGT	0.14
TGTTTCACGTGAGGCA	0.36
GGGCGCACGTGGGAAA	-0.06
TGCATCACGTGGTGTG	0.07
TTTCGCACGTGAGGTG	0.23
TGGGCCACGTGGGGGA	-0.15
GAATTCACGTGGCAGG	0.2
TTTTACACGTGGGCGG	0.1
TTCTTCACGTGGGGCT	0.2
TGGAGCACGTGGGCAA	-0.24
TGTGACACGTGTGGAT	0.04
AGCCTCACGTGGTGGG	0.06
ATGAACACGTGTAAGT	0.18
CGGATCACGTGGAGTT	0.07
GTGATCACGTGGTCGA	0.06

Sequence	relative binding free energy [kcal/mol]
CTAAGCACGTGGGGCG	-0.14
TATATCACGTGTATGC	0.13
CATAACACGTGGTTGT	0.04
GTGTACACGTGAGAAG	0.26
CATGTCACGTGCGTTT	0.07
ATAGACACGTGGGTTT	-0.16
CTGGGCACGTGTGCTG	-0.15
AGGGTCACGTGTGGAT	0.13
GCTGTCACGTGAATGT	0.3
AGGAGCACGTGATTAG	-0.03
AGATCCACGTGGTTGG	-0.05
ATGCTCACGTGAGTGT	0.26
GTAGGCACGTGGGGAC	-0.21
GGGTACACGTGGAGTG	0.18
TATGTCACGTGCTTGA	0.11
TGAGTCACGTGGTCAG	-0.05
ATGGACACGTGGGTAG	-0.01
GTTGGCACGTGGCAGT	-0.14
TATGTCACGTGTGTAC	-0.09
GATTTCACGTGTTGAA	0.34
GTGCACACGTGGATGT	0.09

Sequence	relative binding free energy [kcal/mol]
TTGTACACGTGAATAA	0.21
GGTTGCACGTGTGTGC	0.07
GGTGTCACGTGGCAAT	0.14
GGATGCACGTGATGGT	0.14
TATATCACGTGGTGAA	0.11
AGCGGCACGTGATAGG	-0.01
CGTCTCACGTGTAGTG	0.25
TGAATCACGTGGGGGT	0.09
AGGTACACGTGTGGTG	0.1
TAGGGCACGTGGTTCA	-0.16
AGTGACACGTGAGCGT	-0.03
TCGGTCACGTGGTAGC	0.05
TGTTTCACGTGCACGT	0.14
ATATTCACGTGATACG	0.35
CGTTTCACGTGTTATT	0.23
GTTAGCACGTGCAGTT	-0.11
GGGGACACGTGTGCTA	0.03
GAAGGCACGTGGGGGA	-0.16
TTAACCACGTGAGGTG	0.05
GTCTTCACGTGATGGA	0.39
GTGTTCACGTGATGGG	0.39
